SMILES strings stand for the structures. About 1,700 (3.3%) of roughly 52,000 compounds were called active. No stated cut-off is given here; in the data, active means survival mostly below about 52% (no sharp cut-off); inactive means mostly above about 56%. This is one part of the list.

The assay concerns Wild type. Kind of assay: growth inhibition of S. aureus wild type versus tarO mutant, primary screen, teichoic acid synthesis inhibitors, RN4220, OD600 (AID 463173). To be noted: S. aureus RN4220 wild type/DeltatarO growth, OD600, 18 h, stronger effect = lower value, screened at 18.75 µg/mL (by protocol).
Consider `CCOC(=O)c1cc(-c2ccccc2)n(CCC(=O)Nc2ccc(Cl)c(C(F)(F)F)c2)c1C`, for which the survival was inactive: 74%. Under `Cc1cccc(NS(=O)(=O)c2ccc(-n3cccn3)cc2)c1C` stands inactive: 65%; under `Cc1nn(C)c2c1c(C(F)(F)F)cc(=O)n2Cc1cccc(Br)c1`, inactive: 101%; under `COc1cc(OC)cc(C(=O)N2CCC(C(=O)NC(C)C)CC2)c1`, inactive: 112%. In the case of `O=C(Nc1cccc(Cl)c1)NC1(C(=O)Nc2ccc3c(c2)OCCO3)CCCCC1` it was inactive: 99%; in that of `Cn1cc(S(=O)(=O)N2CCCCCC2)cc1C(=O)NCc1ccccc1Cl`, inactive: 121%; in that of `CCOc1ccc(-n2c(-c3ccccc3)c(C)n3c4c(=O)n(C)c(=O)n(C)c4nc23)cc1`, inactive: 68%.

In the case of `CCCNC(=O)C1CCN(c2ncnc3c2nc2n3CCCCC2)CC1`, the survival is inactive: 64%. Regarding `COc1ccc(NC(=O)c2coc(C)c2)cc1`, the survival is inactive: 102%. On to `CCCCCOc1ccc(/C=C/C(=O)Nc2sc(C(C)=O)c(C)c2C(=O)OCC)cc1OC`, for which the survival is inactive: 76%. On to `CCc1nnc(NC(=O)c2nc(SCc3ccccc3C)ncc2Cl)s1`, for which the survival was inactive: 90%. Under `CCc1ccc(-n2c(=O)c3sc4ccccc4c3n(Cc3cccc(F)c3)c2=O)cc1` stands inactive: 90%; under `CCOC(=O)N1CCc2c(sc(NCc3ccc(OC)c(OC)c3OC)c2C(=O)Nc2ccc(OC)cc2OC)C1`, inactive: 67%; under `CCCC(=O)NCC(c1ccc2c(c1)OCO2)N1CCN(c2ccccc2)CC1` (stereo not drawn), inactive: 92%. Under `CCOC(=O)c1c(NC(=O)CC)sc(C(=O)OC)c1C` stands inactive: 110%; under `Cc1oc(C)c2c(=O)cc(-c3ccc4c(c3)OCO4)cc(OC(=O)c3ccccc3Cl)c12`, inactive: 100%; under `Cc1c(Cl)cccc1NC(=O)Cn1c(=O)nc(-c2ccccc2)c2ccccc21`, inactive: 65%. Under `CS(=O)(=O)N(CC(=O)O)C1CCCCC1` stands inactive: 113%; under `CCN1C(=O)/C(=C2/Sc3ccc(OC)cc3N2C)SC1=Nc1cccc(O)c1`, inactive: 110%.

Regarding `CC1(CCC#N)N=C(SCCC#N)N(c2ccccc2)C1=O` (stereo not drawn), the survival is inactive: 91%. Turning to `CCN(CC)C(=O)c1sc(NC(=O)C(C)Sc2nc(-c3ccccc3)cc(C(F)(F)F)n2)c(C(=O)OC)c1C` (stereo not drawn), the survival is inactive: 118%. As for `CCC(=O)Nc1ccc(S(=O)(=O)NCc2ccc3c(c2)CCN3C(=O)c2ccc(C)cc2)cc1`, the survival was inactive: 110%.

As for `COc1ccc(C2=CC(c3ccccc3F)n3ncc(C(=O)Nc4ccc(C)cc4)c3N2)cc1` (stereo not drawn), the survival is inactive: 94%.

With `CCOC(=O)c1c(-c2ccccc2)csc1NC(=O)c1nc(S(=O)(=O)CC)ncc1Cl`, the survival was active: 2%.

Regarding `COC(=O)c1ccccc1NC(=O)CCC(=O)N1CCOc2ccccc21`, the survival was inactive: 81%. In the case of `CCc1c(C)nc(SCC(=O)N(C(C)C)C(C)C)[nH]c1=O` it was inactive: 116%; in that of `COc1ccccc1Cn1ccn(Cc2c(F)cccc2Cl)c(=O)c1=O`, inactive: 107%.

For `N#Cc1ccccc1CN1c2cccc3cccc(c23)S1(=O)=O`, the survival is inactive: 107%. As to `CN(C)c1oc(/C=C/c2ccc(F)cc2)nc1C#N`, the survival was inactive: 87%.

Regarding `O=C(Nc1ccc(N2CCCC2)cc1)c1ccc(Br)o1`, the survival was inactive: 106%.

Take `Cc1cccc(-c2c3c(=O)n(C)c(=O)n(C)c3cn2-c2cc(N)c(Cl)cc2Cl)c1`: the survival is inactive: 54%.

In the case of `CSc1ccc(-c2nc3ncccn3c2Nc2ccc(C)c(C)c2)cc1`, the survival is inactive: 60%. `Nc1cc(=O)nc(SCC(=O)Nc2cccc(Cl)c2)n1CCc1ccccc1`: the survival was inactive: 94%. Under `CCN(c1ccccc1)c1nnc(NC(=O)Nc2cccc(Cl)c2C)s1` stands inactive: 86%; under `CC(=O)c1ccc(NC(=O)Nc2nnc(N3CCCC(C)C3)s2)cc1` (stereo not drawn), inactive: 76%. Under `CCOC(=O)c1c(C)n(CCNC(C)=O)c2cc(Br)c(OC)cc12` stands inactive: 104%; under `COc1ccc(Cl)cc1Nc1ncnc2c1c(-c1ccccc1)cn2-c1ccccc1`, inactive: 152%. Turning to `CC(C)(C)OC(=O)N1CCC(c2c(C(=O)NCc3cccs3)cnn2-c2ccc(F)cc2F)CC1`, the survival was inactive: 81%. `Cc1nc2c(C(=O)NCCc3ccccc3)cnn2c(C)c1Cc1c(F)cccc1Cl`: the survival is inactive: 71%. In the case of `Cc1c2cnn(CC(=O)NCc3ccc(F)cc3)c(=O)c2c(C)n1Cc1ccccc1F` it was inactive: 96%; in that of `COCCN1CCc2nc(SCC(=O)Nc3ccc(Br)cc3)[nH]c(=O)c2C1`, inactive: 84%. Under `CCOCCCNC(=O)c1cc2c(-c3ccc(OC)c(OC)c3)nn(C)c2s1` stands inactive: 81%. Under `CC(C)(C)NS(=O)(=O)c1ccc2oc3ccc(S(=O)(=O)NC(C)(C)C)cc3c2c1` stands inactive: 104%. Regarding `Cc1ccc(-n2cccn2)cc1`, the survival is inactive: 113%. Consider `COc1ccc(NC(=O)Nc2sc3nc4n(c(=O)c3c2C)CCC(C)CC4)cc1OC` (stereo not drawn), for which the survival is inactive: 89%.

On to `Cc1noc(/C=C/N(C)C)c1S(=O)(=O)N1CCCC(C(=O)Nc2ccc(F)cc2F)C1` (stereo not drawn), for which the survival is inactive: 76%. For `CCS(=O)(=O)c1ncc(Cl)c(C(=O)N2CCN(c3cccc(Cl)c3)CC2)n1`, the survival is inactive: 18%. In the case of `Fc1ccc(C(c2nnnn2Cc2ccccc2)N2CCSCC2)cc1` (stereo not drawn) it was inactive: 105%; in that of `O=C(c1ccco1)N1CCN(C(c2coc3ccc(Cl)cc3c2=O)c2nnnn2C2CCCC2)CC1` (stereo not drawn), inactive: 113%; in that of `CCN(CC)c1nc(-c2ccccc2)nc2ccccc12`, inactive: 108%. Under `Cc1ccc(NCc2ccccc2-c2nnc(-c3ccccc3Cl)o2)c(C)c1` stands inactive: 83%. Regarding `NC(=O)C1(N2CCCCC2)CCN(C(=O)Nc2ccc(C(F)(F)F)cc2)CC1`, the survival was inactive: 114%. As for `Cc1ccc(CNS(=O)(=O)c2cc(C(=O)Nc3cccc(C(F)(F)F)c3)ccc2F)cc1`, the survival is inactive: 112%. Under `N#CC(Cc1cccs1)c1nc2ccccc2[nH]1` (stereo not drawn) stands inactive: 107%. For the compound `COc1ccc(S(=O)(=O)N2Cc3ccccc3CC2C(=O)N2CCOCC2)cc1OC` (stereo not drawn), the survival was inactive: 107%.

As to `Cc1cc(C)c2c(=O)cc(CSc3nnc(COc4ccccc4C)n3C)[nH]c2c1`, the survival was inactive: 80%. Consider `C1CCCN(c2nc3nonc3nc2N2CCCCCC2)CC1`, for which the survival was inactive: 93%. Under `COc1ccccc1-c1cc(C(F)(F)F)nc(S(=O)(=O)CCCC(=O)Nc2cc(OC)c(OC)c(OC)c2)n1` stands inactive: 147%.

For the origin of these results see PubChem BioAssay AID463173 (ICCB-Longwood Screening Facility, Harvard Medical School, 2010).
